This note sets out measurements from PubChem BioAssay AID1346428 (National Center for Advancing Translational Sciences (NCATS), 2018).

Screen size: about 48,000 compounds; about 1,200 (2.5%) were called active. Another 2% or so got no clear call; they are omitted.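 Rule for the calls: active = activation of at least 60% and not above a set upper limit (about 1 call in 100 departs from these limits); inconclusive = activation of 40% to 60%, or above that upper limit; inactive = activation under 40%.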 This is one part of the list.

Sequence of UniProt O75388 (O75388 whole entry, looked up): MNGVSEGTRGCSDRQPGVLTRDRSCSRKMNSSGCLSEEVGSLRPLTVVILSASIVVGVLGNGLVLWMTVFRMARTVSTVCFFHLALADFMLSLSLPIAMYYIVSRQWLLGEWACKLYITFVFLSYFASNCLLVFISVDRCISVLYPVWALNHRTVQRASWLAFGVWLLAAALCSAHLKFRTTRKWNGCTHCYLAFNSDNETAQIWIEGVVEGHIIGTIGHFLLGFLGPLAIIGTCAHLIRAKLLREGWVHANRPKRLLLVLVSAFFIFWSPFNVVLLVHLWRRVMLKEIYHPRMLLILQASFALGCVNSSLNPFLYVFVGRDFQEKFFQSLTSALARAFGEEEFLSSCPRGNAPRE

In this test the target is Probable G-protein coupled receptor 32 (Homo sapiens) (UniProt O75388). Put plainly: qHTS for Agonists of Human Resolvin D1 Receptor DRV1. Note: 0% is about no effect. The following applies: CHO-K1 GPR32 beta-arrestin PathHunter luminescence, 90 min; at 76.9 µM; active compounds read high; zero percent set by DMSO-only wells. Summed up:
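CHO-K1 cells stably expressing ProLink-tagged GPR32 and Enzyme Activator-tagged beta-arrestin were seeded at 2,500 cells/well overnight, exposed to compounds for 90 min at 37 °C, then read by beta-Gal complementation chemiluminescence after 1 h detection reagent.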
A general note: In qHTS, concentration-response curves come from the screen itself.
As for `COc1ccc(-c2cn3cccnc3n2)cc1NC(=O)c1cc(C)cc(C)c1`, the activation is inactive: -6.85%. With `CCOC(=O)c1ccc(NC(=O)c2ccc(=O)n(Cc3cccc(C)c3)c2)cc1` the figure was inactive: 16.8%; with `CC(O)CNc1nc2c(c(=O)n(Cc3ccc(Cl)cc3)c(=O)n2C)n1C` (stereo unspecified), inactive: 45.8%. With `COc1ccc(CCNC(=O)CCc2c(C)c3cc4c(C)coc4c(C)c3oc2=O)cc1OC` the figure was inactive: -9.3%; with `COc1ccc(-c2nnc(C3CCN(S(=O)(=O)c4ccc(C)c(C)c4)CC3)o2)cc1`, inactive: -6.66%.

Regarding `Cc1ccc(-n2ncc(C(=O)N3CCN(c4ccc(Cl)cc4)CC3)c2C2CCN(C(=O)OC(C)(C)C)CC2)c(C)c1`, the activation is inactive: 35.9%. `Cc1cc2c(cc1S(=O)(=O)CCC(=O)NCCc1ccccc1)OCC(=O)N2`: the activation is inactive: -23.3%. With `CCC1CN(C(=O)Nc2ccc(C)c(F)c2)c2ccccc2S1` (stereo unspecified) the figure was inactive: -18.6%; with `Cc1ccc(NC(=O)CN2CCSc3ccc(S(=O)(=O)N4CCCC4)cc32)cc1C`, inactive: 3.04%; with `O=C1CN(C(=O)c2ccc(S(=O)(=O)N3CCCC3)cc2)C(c2ccccc2)c2cc(Br)ccc2N1` (stereo unspecified), inactive: -15.8%. With `CCOc1ccc(-n2nc3cc(C)c(NC(=O)c4cc(OCC)c(OCC)c(OCC)c4)cc3n2)cc1` the figure was inactive: 12%. With `COc1cc(OC)c(NS(=O)(=O)c2cc(-c3cnc(C4CC4)o3)ccc2C)cc1Cl` the figure was inactive: -6.97%; with `Cc1nnc(N2CCC(C(=O)NCCc3ccccc3)CC2)c2nn(-c3ccc(Cl)cc3)c(C)c12`, inactive: -5.65%. Consider `CC(C)(C)C(=O)NC1(C(F)(F)F)C(=O)Nc2c1c(=O)[nH]c(=O)n2-c1ccccc1` (stereo unspecified), for which the activation was inactive: -5.37%.

On to `O=C(CSc1nnc(-c2ccc([N+](=O)[O-])cc2)o1)Nc1ccccc1`, for which the activation is inactive: -43.2%. With `COc1cc(NC(=O)Cn2c(=O)n(Cc3ccco3)c(=O)c3oc4ccccc4c32)cc(OC)c1` the figure was inactive: -27.7%. With `Cc1ccc(-c2nc(Cn3c(=O)cc(-c4ccccc4)c4c(C)nn(C)c43)c(C)o2)cc1` the figure was inactive: 12%; with `Cc1cc(C)cc(NS(=O)(=O)c2ccc3[nH]cc(C(=O)NCc4ccccc4Cl)c(=O)c3c2)c1`, inactive: -13.2%. As to `CCOc1ccc(C(=O)N2CCC(c3noc(-c4ccc(S(=O)(=O)N5CCCC5)cc4)n3)CC2)cc1`, the activation is inactive: -26%.

For the compound `CN(C1CCCCC1)S(=O)(=O)c1ccc2c(c1)c(=O)c(C(=O)N1CCN(c3ccccc3F)CC1)cn2C`, the activation is inactive: -2.99%. Consider `CCc1c(-c2ccccc2)nc2ccccc2c1C(=O)NCc1ccc(C)cc1`, for which the activation was inactive: -24.9%.

`Cc1ccc(OCCn2nnc3sc4c(c3c2=O)CCC(C)C4)cc1` (stereo unspecified): the activation is inactive: 13.9%. With `Cn1cnc(S(=O)(=O)N2CCC(C(=O)N3CCN(c4ccccc4F)CC3)CC2)c1` the figure was inactive: -5.34%; with `CCOc1ccc(NC(=O)c2cc(=O)c3ccc(C)c(C)c3o2)cc1`, inactive: -1.71%.

For `CSc1cccc(NS(=O)(=O)c2cn(C)c(C)n2)c1`, the activation is inactive: -6.5%. With `CCOc1ccc2c(c1)NC(c1cccs1)=NC(c1ccc(F)cc1)=N2` the figure was inactive: -34%; with `O=C1CSC2(C(=O)N(Cc3ccccc3)c3ccccc32)N1c1ccc(Cl)cc1` (stereo unspecified), inactive: -21.7%; with `COc1ccc(C2C(C(=O)Nc3ccc(C)cc3C)=C(C)Nc3nc4ccccc4n32)c(OC)c1` (stereo unspecified), inactive: -18.2%. With `COc1ccc2occ(CC(=O)Nc3ccc(S(=O)(=O)Nc4nc(C)cc(C)n4)cc3)c2c1` the figure was inactive: -7.49%. With `COc1ccc(N2CCN(c3nc4ccc(C)cc4n4nnnc34)CC2)cc1` the figure was inactive: -6.35%; with `O=C(Nc1ccc(Br)cc1F)N1CCC2(CC1)Oc1ccccc1C(=O)N2Cc1ccccc1F`, inactive: -25.7%; with `CCN(c1ccccc1)c1nnc(NC(=O)Nc2ccc(Br)cc2F)s1`, inactive: 0.55%.

As for `CC(C)(C)c1ccc(C(=O)N2CCCCC2CCN2CCCCC2)cc1` (stereo unspecified), the activation is inactive: 6.13%.

In the case of `COC(=O)c1cc(NC(=O)Cn2nc(-c3ccc(C)c(C)c3)ccc2=O)cc(C(=O)OC)c1`, the activation is inactive: -3.51%. With `CCC(C)NC(=O)C1=CC(c2ccc3c(c2)OCO3)=NS(=O)(=O)N1C` (stereo unspecified) the figure was inactive: -3.06%. With `COc1ccc2c(c1)cc1c(=O)n(CC(=O)NCCCc3ccccc3)nc(C)n12` the figure was inactive: -18.4%; with `COC(=O)c1ccc(Cn2nnc3c(=O)[nH]c(C4CCCN(S(=O)(=O)c5cccc(Cl)c5)C4)nc32)cc1` (stereo unspecified), inactive: -7.72%.

Turning to `O=C(CN1C(=O)COc2ccc(S(=O)(=O)Nc3ccccc3)cc21)Nc1cccc(Cl)c1`, the activation was inactive: 41.5%.

With `COc1cccc2c1Oc1ncccc1N(C(=O)CCC(=O)NCc1ccccc1Cl)C2`, the activation was inactive: -0.258%. With `Cc1ccc2nc(CNC(=O)c3ccccc3)[nH]c2c1` the figure was inactive: 4.42%. With `Cc1cccn2c(=O)c(C(=O)NCCc3ccccc3)c(O)nc12` the figure was inactive: 5.96%; with `COc1ccc(CCNC(=O)C(=O)NCC(c2ccc3c(c2)OCO3)N2CCOCC2)cc1OC` (stereo unspecified), inactive: -14%. With `Cc1cccc(-c2noc(CSc3nc(-c4ccc(F)cc4)cc(=O)[nH]3)n2)c1` the figure was inactive: -5.26%. Turning to `CCOc1ccc(NC(=O)c2oc3ccccc3c2NC(=O)c2c(F)cccc2F)cc1`, the activation was inactive: -5.87%.

As for `COc1ccccc1N1CCN(C(=O)CSc2nc3ccccc3nc2Cc2ccccc2)CC1`, the activation was inactive: -1.63%. With `COc1cccc(-n2ccn(CC(=O)c3ccc(F)cc3)c(=O)c2=O)c1` the figure was inactive: -2.4%.

For `CCOc1ccc(NC(=O)C2CCCN(S(=O)(=O)c3ccc4[nH]c(=O)ccc4c3)C2)cc1` (stereo unspecified), the activation was inactive: 5.43%. With `Cc1ccc(NC(=O)C(=O)c2cc(C)n(-c3ccc(F)cc3)c2C)cc1C` the figure was inactive: -8.88%; with `CCCN(CCC)S(=O)(=O)c1ccc2c(c1)N(CC(=O)NC(C)c1ccccc1)C(=O)CS2` (stereo unspecified), inactive: -24.3%; with `COc1ccc(CNC(=O)c2cc(Nc3ccc(C)cc3C)nc3ccccc23)cc1`, inactive: 20.3%. With `Cc1ccc(CSC2=Nc3ccccc3C3=NC(CC(=O)NC4CCCCC4)C(=O)N23)cc1` (stereo unspecified) the figure was inactive: 2.32%.
